{"source": "the supplement of paper PMC8728848", "binders": {"B1": {"name": "HPA (Helix pomatia), Q2F1K8 (protein)", "chain": "MQAFYSGLLLLCVVAFAAAQRVQSGKIDCGNDAGWAKVPSDDPGRDNTRELAKNITFASPYCRPPVVLLSITQLDVEQSQNLRVIARLYSVSPTGFKASCYTWHNTKVYSMSISWISIENY"}}, "experiment_in_all_cases": "glycan array binding signal (z-score within array); higher = stronger binding", "conditions_in_all_cases": "glycan notation: IUPAC condensed, linker removed", "key": {"[1]": {"biological_target": "Fuc(a1-2)Gal(b1-4)[Fuc(a1-3)]GlcNAc(b1-3)GalNAc", "outline": "(§1)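 Arrays were curated from the Consortium for Functional Glycomics database, 3228 in total, and kept only where the protein sequence was available. Binding is expressed as a within-array Z-score. This score was averaged across arrays of the same protein sequence at different concentrations or buffers and across linkers, and negative values can be read as non-binding.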"}, "[2]": {"biological_target": "Fuc(a1-2)Gal(b1-4)[Fuc(a1-3)]GlcNAc(b1-3)[Neu5Ac(a2-6)Gal(b1-4)GlcNAc(b1-6)]Gal(b1-4)Glc", "outline": "as §1"}, "[3]": {"biological_target": "Fuc(a1-2)Gal3S(b1-4)GlcNAc", "outline": "as §1"}, "[4]": {"biological_target": "Fuc(a1-2)Gal6S(b1-3)GlcNAc", "outline": "as §1"}, "[5]": {"biological_target": "Fuc(a1-2)Gal6S(b1-3)GlcNAc6S", "outline": "as §1"}, "[6]": {"biological_target": "Fuc(a1-2)Gal6S(b1-4)Glc", "outline": "as §1"}, "[7]": {"biological_target": "Fuc(a1-2)Gal6S(b1-4)Glc6S", "outline": "as §1"}, "[8]": {"biological_target": "Fuc(a1-2)Gal6S(b1-4)GlcNAc", "outline": "as §1"}, "[9]": {"biological_target": "Fuc(a1-2)GlcNAc", "outline": "as §1"}, "[10]": {"biological_target": "Fuc(a1-2)[Gal(a1-3)]Gal", "outline": "as §1"}, "[11]": {"biological_target": "Fuc(a1-2)[Gal(a1-3)]Gal(b1-3)GalNAc", "outline": "as §1"}, "[12]": {"biological_target": "Fuc(a1-2)[Gal(a1-3)]Gal(b1-3)GalNAc(b1-3)Gal(a1-4)Gal(b1-4)Glc", "outline": "as §1"}, "[13]": {"biological_target": "Fuc(a1-2)[Gal(a1-3)]Gal(b1-3)GlcNAc", "outline": "as §1"}, "[14]": {"biological_target": "Fuc(a1-2)[Gal(a1-3)]Gal(b1-3)GlcNAc(b1-2)Man(a1-3)[Fuc(a1-2)[Gal(a1-3)]Gal(b1-3)GlcNAc(b1-2)Man(a1-6)]Man(b1-4)GlcNAc(b1-4)GlcNAc", "outline": "as §1"}, "[15]": {"biological_target": "Fuc(a1-2)[Gal(a1-3)]Gal(b1-3)GlcNAc(b1-2)Man(a1-3)[Fuc(a1-2)[Gal(a1-3)]Gal(b1-3)GlcNAc(b1-2)Man(a1-6)]Man(b1-4)GlcNAc(b1-4)[Fuc(a1-6)]GlcNAc", "outline": "as §1"}, "[16]": {"biological_target": "Fuc(a1-2)[Gal(a1-3)]Gal(b1-3)GlcNAc(b1-3)GalNAc", "outline": "as §1"}, "[17]": {"biological_target": "Fuc(a1-2)[Gal(a1-3)]Gal(b1-3)GlcNAc(b1-6)GalNAc", "outline": "as §1"}, "[18]": {"biological_target": "Fuc(a1-2)[Gal(a1-3)]Gal(b1-4)Glc", "outline": "as §1"}, "[19]": {"biological_target": "Fuc(a1-2)[Gal(a1-3)]Gal(b1-4)GlcNAc", "outline": "as §1"}, "[20]": {"biological_target": "Fuc(a1-2)[Gal(a1-3)]Gal(b1-4)GlcNAc(b1-2)Man", "outline": "as §1"}, "[21]": {"biological_target": "Fuc(a1-2)[Gal(a1-3)]Gal(b1-4)GlcNAc(b1-2)Man(a1-3)[Fuc(a1-2)[Gal(a1-3)]Gal(b1-4)GlcNAc(b1-2)Man(a1-6)]Man(b1-4)GlcNAc(b1-4)GlcNAc", "outline": "as §1"}, "[22]": {"biological_target": "Fuc(a1-2)[Gal(a1-3)]Gal(b1-4)GlcNAc(b1-2)Man(a1-3)[Fuc(a1-2)[Gal(a1-3)]Gal(b1-4)GlcNAc(b1-2)Man(a1-6)]Man(b1-4)GlcNAc(b1-4)[Fuc(a1-6)]GlcNAc", "outline": "as §1"}, "[23]": {"biological_target": "Fuc(a1-2)[Gal(a1-3)]Gal(b1-4)GlcNAc(b1-3)GalNAc", "outline": "as §1"}, "[24]": {"biological_target": "Fuc(a1-2)[Gal(a1-3)]Gal(b1-4)GlcNAc(b1-6)GalNAc", "outline": "as §1"}, "[25]": {"biological_target": "Fuc(a1-2)[Gal(a1-3)]Gal(b1-4)[Fuc(a1-3)]Glc", "outline": "as §1"}, "[26]": {"biological_target": "Fuc(a1-2)[Gal(a1-3)]Gal(b1-4)[Fuc(a1-3)]GlcNAc", "outline": "as §1"}, "[27]": {"biological_target": "Fuc(a1-2)[Gal(a1-3)]Gal(b1-4)[Fuc(a1-3)]GlcNAc(b1-3)GalNAc", "outline": "as §1"}, "[28]": {"biological_target": "Fuc(a1-2)[Gal(a1-4)]Gal(b1-4)GlcNAc", "outline": "as §1"}, "[29]": {"biological_target": "Fuc(a1-2)[GalNAc(a1-3)]Gal", "outline": "as §1"}, "[30]": {"biological_target": "Fuc(a1-2)[GalNAc(a1-3)]Gal(b1-3)GalNAc(a1-3)[Fuc(a1-2)]Gal(b1-4)GlcNAc", "outline": "as §1"}, "[31]": {"biological_target": "Fuc(a1-2)[GalNAc(a1-3)]Gal(b1-3)GalNAc(b1-3)Gal(a1-4)Gal(b1-4)Glc", "outline": "as §1"}, "[32]": {"biological_target": "Fuc(a1-2)[GalNAc(a1-3)]Gal(b1-3)GlcNAc", "outline": "as §1"}, "[33]": {"biological_target": "Fuc(a1-2)[GalNAc(a1-3)]Gal(b1-3)GlcNAc(b1-2)Man(a1-3)[Fuc(a1-2)[GalNAc(a1-3)]Gal(b1-3)GlcNAc(b1-2)Man(a1-6)]Man(b1-4)GlcNAc(b1-4)GlcNAc", "outline": "as §1"}, "[34]": {"biological_target": "Fuc(a1-2)[GalNAc(a1-3)]Gal(b1-3)GlcNAc(b1-2)Man(a1-3)[Fuc(a1-2)[GalNAc(a1-3)]Gal(b1-3)GlcNAc(b1-2)Man(a1-6)]Man(b1-4)GlcNAc(b1-4)[Fuc(a1-6)]GlcNAc", "outline": "as §1"}, "[35]": {"biological_target": "Fuc(a1-2)[GalNAc(a1-3)]Gal(b1-3)GlcNAc(b1-3)GalNAc", "outline": "as §1"}, "[36]": {"biological_target": "Fuc(a1-2)[GalNAc(a1-3)]Gal(b1-3)GlcNAc(b1-6)GalNAc", "outline": "as §1"}, "[37]": {"biological_target": "Fuc(a1-2)[GalNAc(a1-3)]Gal(b1-4)Glc", "outline": "as §1"}, "[38]": {"biological_target": "Fuc(a1-2)[GalNAc(a1-3)]Gal(b1-4)GlcNAc", "outline": "as §1"}, "[39]": {"biological_target": "Fuc(a1-2)[GalNAc(a1-3)]Gal(b1-4)GlcNAc(b1-2)Man", "outline": "as §1"}, "[40]": {"biological_target": "Fuc(a1-2)[GalNAc(a1-3)]Gal(b1-4)GlcNAc(b1-2)Man(a1-3)[Fuc(a1-2)[GalNAc(a1-3)]Gal(b1-4)GlcNAc(b1-2)Man(a1-6)]Man(b1-4)GlcNAc(b1-4)GlcNAc", "outline": "as §1"}, "[41]": {"biological_target": "Fuc(a1-2)[GalNAc(a1-3)]Gal(b1-4)GlcNAc(b1-2)Man(a1-3)[Fuc(a1-2)[GalNAc(a1-3)]Gal(b1-4)GlcNAc(b1-2)Man(a1-6)]Man(b1-4)GlcNAc(b1-4)[Fuc(a1-6)]GlcNAc", "outline": "as §1"}, "[42]": {"biological_target": "Fuc(a1-2)[GalNAc(a1-3)]Gal(b1-4)GlcNAc(b1-2)Man(a1-3)[GalNAc(a1-3)[Fuc(a1-2)]Gal(b1-4)GlcNAc(b1-2)Man(a1-6)]Man(b1-4)GlcNAc(b1-4)GlcNAc", "outline": "as §1"}, "[43]": {"biological_target": "Fuc(a1-2)[GalNAc(a1-3)]Gal(b1-4)GlcNAc(b1-3)Gal(b1-4)GlcNAc", "outline": "as §1"}, "[44]": {"biological_target": "Fuc(a1-2)[GalNAc(a1-3)]Gal(b1-4)GlcNAc(b1-3)Gal(b1-4)GlcNAc(b1-3)Gal(b1-4)GlcNAc", "outline": "as §1"}, "[45]": {"biological_target": "Fuc(a1-2)[GalNAc(a1-3)]Gal(b1-4)GlcNAc(b1-3)GalNAc", "outline": "as §1"}}, "note": "Some of the results follow.", "data": [{"binder": "B1", "values": [{"measurement": "glycan array binding signal (z-score)", "setting": "[1]", "result": 0.708}, {"measurement": "glycan array binding signal (z-score)", "setting": "[2]", "result": -0.323}, {"measurement": "glycan array binding signal (z-score)", "setting": "[3]", "result": -0.228}, {"measurement": "glycan array binding signal (z-score)", "setting": "[4]", "result": -0.173}, {"measurement": "glycan array binding signal (z-score)", "setting": "[5]", "result": -0.277}, {"measurement": "glycan array binding signal (z-score)", "setting": "[6]", "result": -0.224}, {"measurement": "glycan array binding signal (z-score)", "setting": "[7]", "result": 0.113}, {"measurement": "glycan array binding signal (z-score)", "setting": "[8]", "result": 0.582}, {"measurement": "glycan array binding signal (z-score)", "setting": "[9]", "result": -0.295}, {"measurement": "glycan array binding signal (z-score)", "setting": "[10]", "result": -0.355}, {"measurement": "glycan array binding signal (z-score)", "setting": "[11]", "result": -0.303}, {"measurement": "glycan array binding signal (z-score)", "setting": "[12]", "result": -0.297}, {"measurement": "glycan array binding signal (z-score)", "setting": "[13]", "result": -0.103}, {"measurement": "glycan array binding signal (z-score)", "setting": "[14]", "result": -0.13}, {"measurement": "glycan array binding signal (z-score)", "setting": "[15]", "result": -0.17}, {"measurement": "glycan array binding signal (z-score)", "setting": "[16]", "result": -0.113}, {"measurement": "glycan array binding signal (z-score)", "setting": "[17]", "result": -0.164}, {"measurement": "glycan array binding signal (z-score)", "setting": "[18]", "result": -0.333}, {"measurement": "glycan array binding signal (z-score)", "setting": "[19]", "result": -0.193}, {"measurement": "glycan array binding signal (z-score)", "setting": "[20]", "result": -0.241}, {"measurement": "glycan array binding signal (z-score)", "setting": "[21]", "result": -0.176}, {"measurement": "glycan array binding signal (z-score)", "setting": "[22]", "result": -0.122}, {"measurement": "glycan array binding signal (z-score)", "setting": "[23]", "result": 0.168}, {"measurement": "glycan array binding signal (z-score)", "setting": "[24]", "result": -0.357}, {"measurement": "glycan array binding signal (z-score)", "setting": "[25]", "result": -0.172}, {"measurement": "glycan array binding signal (z-score)", "setting": "[26]", "result": -0.009}, {"measurement": "glycan array binding signal (z-score)", "setting": "[27]", "result": 0.007}, {"measurement": "glycan array binding signal (z-score)", "setting": "[28]", "result": -0.138}, {"measurement": "glycan array binding signal (z-score)", "setting": "[29]", "result": 1.96}, {"measurement": "glycan array binding signal (z-score)", "setting": "[30]", "result": 2.22}, {"measurement": "glycan array binding signal (z-score)", "setting": "[31]", "result": 2.62}, {"measurement": "glycan array binding signal (z-score)", "setting": "[32]", "result": 1.99}, {"measurement": "glycan array binding signal (z-score)", "setting": "[33]", "result": 1.88}, {"measurement": "glycan array binding signal (z-score)", "setting": "[34]", "result": 1.22}, {"measurement": "glycan array binding signal (z-score)", "setting": "[35]", "result": 0.89}, {"measurement": "glycan array binding signal (z-score)", "setting": "[36]", "result": 1.32}, {"measurement": "glycan array binding signal (z-score)", "setting": "[37]", "result": 1.62}, {"measurement": "glycan array binding signal (z-score)", "setting": "[38]", "result": 1.71}, {"measurement": "glycan array binding signal (z-score)", "setting": "[39]", "result": 2.55}, {"measurement": "glycan array binding signal (z-score)", "setting": "[40]", "result": 3.07}, {"measurement": "glycan array binding signal (z-score)", "setting": "[41]", "result": 1.34}, {"measurement": "glycan array binding signal (z-score)", "setting": "[42]", "result": 1.09}, {"measurement": "glycan array binding signal (z-score)", "setting": "[43]", "result": 2.66}, {"measurement": "glycan array binding signal (z-score)", "setting": "[44]", "result": 3.15}, {"measurement": "glycan array binding signal (z-score)", "setting": "[45]", "result": 1.45}]}]}
